Drawing on PubChem BioAssay AID360 (National Center for Advancing Translational Sciences (NCATS), 2006), this text covers Potency for 91 compounds.

Hit rate of the full screen: of about 48,000 compounds, about 550 (1.1%) were called active. Another 4% or so got no clear call; they are omitted. Cut-off read from the data, not from the text of the source: active = potency below about 15 µM; inconclusive = mostly about 16 µM to 33 µM; inactive = weaker than that. The list shows a part of the results.
Potency is the fitted concentration of half-maximal effect.

Chain of UniProt P04062 (P04062 whole entry, looked up): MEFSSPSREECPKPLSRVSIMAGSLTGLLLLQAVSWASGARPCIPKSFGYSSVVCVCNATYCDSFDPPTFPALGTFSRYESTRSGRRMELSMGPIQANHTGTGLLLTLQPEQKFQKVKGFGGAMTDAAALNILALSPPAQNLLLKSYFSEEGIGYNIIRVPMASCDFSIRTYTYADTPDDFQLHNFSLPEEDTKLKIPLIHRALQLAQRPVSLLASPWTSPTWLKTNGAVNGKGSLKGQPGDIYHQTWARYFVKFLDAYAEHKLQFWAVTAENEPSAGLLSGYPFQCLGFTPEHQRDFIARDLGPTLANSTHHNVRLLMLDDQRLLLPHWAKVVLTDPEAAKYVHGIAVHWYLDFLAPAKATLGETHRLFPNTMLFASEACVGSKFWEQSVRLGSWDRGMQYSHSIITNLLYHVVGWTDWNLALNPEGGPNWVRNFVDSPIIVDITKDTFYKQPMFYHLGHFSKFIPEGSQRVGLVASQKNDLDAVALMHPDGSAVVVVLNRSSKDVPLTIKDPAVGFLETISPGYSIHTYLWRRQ

This experiment addresses Lysosomal acid glucosylceramidase (Homo sapiens) (UniProt P04062). Description: Glucocerebrosidase.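 Note: the screen sought inhibitors.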 To be noted: purified enzyme, resorufin glucoside fluorescence (screen aimed at inhibitors), 20 min; series mostly up to 77 µM. The essentials:
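Normal human glucocerebrosidase (0.2 nM final) was assayed with resorufin β-D-glucopyranoside (30 uM final) in 50mM citric acid/KH2PO4, 10mM sodium taurocholate, 0.01% tween-20, pH 5.9. Compounds were titrated; fluorescence (Ex 548, Em 600) read after 20 min at RT.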
On to `O=C(O)CCc1ccc(-c2cccs2)n1CC1CCCO1` (stereo unspecified), for which the Potency is inactive: > 76.9 µM.
As to `Cc1ccc(Cl)c(OCC(O)CN(CCO)CCO)c1` (stereo unspecified), the Potency was inactive: > 76.9 µM.
The figure for `O=S(=O)(c1ccc(Br)c2nsnc12)N1CCOCC1` is inactive: > 76.9 µM.
For `CN(C)c1ccc(NC(=O)Cn2c(=O)n(Cc3ccccc3)c(=O)c3ccccc32)cc1`, the Potency is inactive: > 76.9 µM.
The result for `CC(=O)OCCN1C(=O)c2cccnc2C1=O` reads inactive: > 76.9 µM; that for `Cc1ccc2c(c1)c1c3n2CCN(C(=O)CN2CCN(C)CC2)C3CCC1` (stereo unspecified), inactive: > 76.9 µM; that for `O=c1cc(-c2c(F)c(F)c(F)c(F)c2F)oc2c(F)c(F)c(F)c(F)c12`, inactive: > 76.9 µM.
The result for `Cc1c(C2Nc3ccccc3NC3=C2C(=O)CC(C)(C)C3)cnn1C` (stereo unspecified) reads inactive: > 76.9 µM.
The figure for `CCOc1ccc(N2C(=O)NC(Cc3c[nH]c4ccccc34)C2=O)cc1` (stereo unspecified) is inactive: > 76.9 µM.
Turning to `CCN(CC(=O)Nc1ccccc1OC)C(=O)C1CC2C=CC1C2` (stereo unspecified), the Potency was inactive: > 76.9 µM.
The result for `COc1ccc(C2C(C(=O)O)CC(=O)N2C2CCCCC2)cc1` (stereo unspecified) reads inactive: > 76.9 µM; that for `CCN(CCCNC(=O)CNC(=O)Cn1cnc2ccccc2c1=O)c1cccc(C)c1`, inactive: > 76.9 µM.
Regarding `Cc1nn(Cc2ccc(F)cc2)c(C)c1NC(=O)c1cc(-c2ccco2)on1`, the Potency was inactive: > 76.9 µM.
The result for `O=C(C1COc2ccccc2O1)N1CCc2ccccc21` (stereo unspecified) reads inactive: > 76.9 µM; that for `C=CCn1c(SCc2ccc(C#N)cc2)nnc1-c1cccc(OC)c1`, inactive: > 76.9 µM; that for `Nc1sccc1C(=O)c1ccccc1`, inactive: > 76.9 µM.
In the case of `CC1(C)Cc2nc3oc4c(=S)nc[nH]c4c3cc2CO1`, the Potency was inactive: > 76.9 µM.
The figure for `CC(=O)Oc1cc2oc(=O)c3c(c2cc1Cl)CCC3` is inactive: > 76.9 µM.
As to `CCC(=O)N1c2ccccc2NC2=C(C(=O)CCC2)C1c1cccnc1` (stereo unspecified), the Potency was inactive: > 76.9 µM.
Regarding `Cc1cc(C)nc(N2CCC(C(=O)Nc3nnc(C)s3)CC2)n1`, the Potency is active: 3.03 µM.
For `COc1cccc2cc(C(=O)N3CCc4ccccc43)c(=O)oc12`, the Potency was inactive: > 76.9 µM.
The result for `CC1(C)C(=O)Nc2ccccc2N1C(=O)COC(=O)Cn1cnc2ccccc2c1=O` reads inactive: > 76.9 µM; that for `Cc1ccc(NC2c3ncccc3C(=O)N2Cc2ccc(F)cc2)cc1` (stereo unspecified), inactive: > 76.9 µM.
The figure for `Cc1ccc(C2CC(=O)Nc3cc4c(cc32)OCCO4)s1` (stereo unspecified) is inactive: > 76.9 µM.
The result for `COc1ccc(C2C=C(c3ccc(Br)cc3)Nc3nc(N4C(=O)CCC4=O)nn32)cc1` (stereo unspecified) reads inactive: > 76.9 µM; that for `CCCCN1C(=O)C(NC(C)=O)c2ccccc21` (stereo unspecified), inactive: > 76.9 µM.
Take `COC(=O)c1ccc(Cn2cnc3c(cnn3-c3ccc(F)cc3)c2=O)o1`: the Potency was inactive: > 76.9 µM.
The figure for `CCSc1nnc(NC(=O)c2cc(C)on2)s1` is inactive: > 76.9 µM; for `O=C(NCc1ccccc1)N(Cc1nc2ccccc2c(=O)[nH]1)C1CCCC1` it is inactive: > 76.9 µM.
Consider `COC(=O)c1sc(NC(=O)CSc2nnnn2-c2ccc(C)cc2C)nc1C`, for which the Potency was inactive: > 76.9 µM.
The figure for `CCCCCn1c(Sc2ncccn2)nc2c1c(=O)[nH]c(=O)n2C` is inactive: > 76.9 µM; for `COc1ccc(N2CCN(C(c3ccccc3OC)c3nnnn3Cc3ccco3)CC2)cc1` (stereo unspecified) it is inactive: > 76.9 µM.
The figure for `COc1cc(OC)c2c(C)cc(=O)oc2c1` is inactive: > 76.9 µM; for `CC1CC(C)CN(c2oc(-c3ccco3)nc2C#N)C1` (stereo unspecified) it is inactive: > 76.9 µM; for `Cc1ccc(Cn2nnc3c(=O)[nH]c(C(=O)NCc4ccco4)nc32)cc1` it is inactive: > 76.9 µM.
As to `Cc1cc(C)nc(-n2nc(C)cc2NC(=O)c2ccc(Br)o2)n1`, the Potency was inactive: > 76.9 µM.
As to `C=CCn1c(NCc2ccc(N(C)C)cc2)nc2ccccc21`, the Potency was inactive: > 76.9 µM.
For `OCCN1CCN(CC(O)COc2ccc3ccccc3c2)CC1` (stereo unspecified), the Potency was inactive: > 76.9 µM.
The figure for `CCOc1ccccc1C(=O)NC1CC2CCCC(C1)N2C1CC1` (stereo unspecified) is inactive: > 76.9 µM; for `CCC12CN3CC(CC)(CN(C1)C3c1ccc(OC(C)C)cc1)C2=O` (stereo unspecified) it is active: 4.26 µM.
The result for `O=C(O)CC(c1ccccc1)c1ccccc1` reads inactive: > 76.9 µM; that for `COc1cc(CCC(=O)OCn2nnc3ccccc3c2=O)cc(OC)c1OC`, “inactive”.
`Clc1ccc(Cl)c(-c2nn3c(Cn4cnc5ccccc54)nnc3s2)c1`: the Potency is inactive: > 76.9 µM.
The result for `Cc1cc(C)c2c(N=CN(C)C)c(C(=O)N3CCN(c4ncccn4)CC3)sc2n1` reads inactive: > 76.9 µM.
Take `c1ccc(Cc2nn3c(-c4ccncc4)nnc3s2)cc1`: the Potency was inactive: > 76.9 µM.
As to `CCn1c(CSc2nc(C)cc(C)n2)nnc1SCC(=O)Nc1ccccc1`, the Potency is inactive: > 76.9 µM.
The figure for `S=C(c1ccc(N2CCOCC2)cc1)N1CCCCC1` is inactive: > 76.9 µM; for `Cn1c(=O)c2c(-c3ccccc3)n(N3CCOCC3)cc2n(C)c1=O` it is inactive: > 76.9 µM; for `COC(=O)c1ccccc1NC(=O)C1CCN(S(=O)(=O)c2cc(C)ccc2OC)CC1` it is inactive: > 76.9 µM.
The result for `CN(C(=O)c1ccc(NC(=O)C2CC=CCC2C(=O)O)cc1)c1ccccc1` (stereo unspecified) reads inactive: > 76.9 µM.
The result for `CCOC(=O)N1CCC(NC(=O)c2cccnc2SC)CC1` reads inactive: > 76.9 µM; that for `CCOC(=O)N1CCN(CC(=O)Nc2c(C(=O)OC)[nH]c3cccc(Cl)c23)CC1`, inactive: > 76.9 µM; that for `Nc1nonc1C(=Nc1ccccc1)NO`, inactive: > 76.9 µM.
Turning to `CN(C)S(=O)(=O)NC(c1ccccc1)c1ccccc1`, the Potency was inactive: > 76.9 µM.
The result for `O=C(N1CCCCC1)N1CCCN(C(=O)N2CCCCC2)CC1` reads inactive: > 76.9 µM; that for `CCn1c(COc2ccc3c(c2)CCCC3)nnc1SCC(=O)Nc1nccs1`, inactive: > 76.9 µM; that for `CC(C)(C)c1ccc(OCC(=O)O)cc1`, inactive: > 76.9 µM.
As for `CCOC(=O)N1CCC(NC(=O)c2sc(-n3cccc3)nc2C)CC1`, the Potency is inactive: > 76.9 µM.
For `COc1cccc(C2=CC(c3cccc(OC)c3OC(F)F)n3nnnc3N2)c1` (stereo unspecified), the Potency is inactive: > 76.9 µM.
With `O=C(C1CC1)N1CCc2cc(S(=O)(=O)N(CCO)Cc3ccccc3)ccc21`, the Potency was inactive: > 76.9 µM.
The figure for `COc1ccc(CNC(=O)COC(=O)c2n[nH]c3ccccc23)cc1` is inactive: > 76.9 µM; for `COCC(C)NC(=O)c1noc2c1CCc1cc(OC)ccc1-2` (stereo unspecified) it is inactive: > 76.9 µM; for `CCCOC(=O)Cc1n[nH]c(=O)[nH]c1=O` it is inactive: > 76.9 µM.
The figure for `CCC(C)(C)NC(=O)C(c1cccn1C)N(Cc1ccccc1)C(=O)Cn1nnc2ccccc21` (stereo unspecified) is inactive: > 76.9 µM; for `CCOC(=O)c1nn(-c2ccccc2)c(C#N)c1NC(=O)c1nn(CC)cc1Br` it is inactive: > 76.9 µM; for `O=C(CN1CCOCC1)N1CCN(C(=O)CN2CCOCC2)CC1` it is inactive: > 76.9 µM.
The figure for `Cc1cc(C)c(C(=O)CSc2nnc(-c3ccccc3Br)o2)cc1C` is inactive: > 76.9 µM; for `CCc1nnc(NC(=O)CSc2nnc(COc3ccccc3)n2-c2ccc(C)cc2)s1` it is inactive: > 76.9 µM; for `Cc1ccc2nc(SCC(=O)Nc3c(C)n(C)n(-c4ccccc4)c3=O)[nH]c2c1` it is inactive: > 76.9 µM.
As for `CCOC(=O)N1CCC(N(C(=O)Nc2ccc(Cl)c(Cl)c2)C(C)CC)CC1` (stereo unspecified), the Potency is inactive: > 76.9 µM.
The result for `CCc1ccc2[nH]c(=O)c(CN(CCO)C(=O)NCc3ccccc3)cc2c1` reads inactive: > 76.9 µM.
Consider `O=C(Cn1nnc(-c2ccccc2F)n1)Nc1ccc(C(=O)N2CCOCC2)cc1`, for which the Potency was inactive: > 76.9 µM.
The result for `CCOc1ccccc1N(CC(=O)NC(C)(C)C)C(=O)c1ccc(CN2CCOCC2)o1` reads inactive: > 76.9 µM; that for `CCc1ccc(N2CC(C(=O)NCc3ccc4c(c3)OCO4)CC2=O)cc1` (stereo unspecified), inactive: > 76.9 µM.
The result for `COc1ccc(-c2cc(C(=O)NC(C)C)no2)cc1` reads inactive: > 76.9 µM; that for `CS(=O)(=O)c1ccc(Cl)c(S(=O)(=O)NCc2ccccc2)c1`, inactive: > 76.9 µM.
The result for `CCOC(=O)N1C(=O)c2cc(OC)ccc2S1(=O)=O` reads inactive: > 76.9 µM; that for `CCOCCn1c(N(C)Cc2ccccc2)nc2c1c(=O)[nH]c(=O)n2C`, inactive: > 76.9 µM.
In the case of `COc1ccc(NC(=O)CCc2ccccc2)cc1NC(=O)c1ccco1`, the Potency is inactive: > 76.9 µM.
The figure for `Cc1nn(CC(=O)Nc2ccccn2)c(=O)c2ccccc12` is inactive: > 76.9 µM.
The figure for `CCCN1C(=O)NC2(O)C(=O)c3ccccc3C12O` (stereo unspecified) is inactive: > 76.9 µM; for `COc1ccc(C2NCCC3(O)CCCCC23)c(OC)c1OC` (stereo unspecified) it is inactive: > 76.9 µM; for `COc1ccc(N2CCN(C(=O)CCNS(=O)(=O)c3ccc4c(c3)CCC(=O)N4)CC2)cc1` it is inactive: > 76.9 µM.
For `CCC(C)(C(=O)Nc1ccc2c(c1)OCCO2)N(C(C)=O)c1ccc(C(N)=O)cc1` (stereo unspecified), the Potency is inactive: > 76.9 µM.
The result for `COc1ccc(S(=O)(=O)N(C)CC(=O)NC2CC2)cc1` reads inactive: > 76.9 µM; that for `Cc1nnc(Oc2ccccc2)c2ccccc12`, inactive: > 76.9 µM; that for `COC(=O)c1cccc(NC(=O)CSc2nnc(COc3ccc(C#N)cc3)n2-c2ccccc2)c1`, inactive: > 15.4 µM.
The figure for `c1cncc(-c2nnc(SCc3nc4ccccc4[nH]3)o2)c1` is inactive: > 76.9 µM; for `CCCn1nnc(NC(=O)c2ccc(-c3ccccc3)cc2)n1` it is inactive: > 76.9 µM; for `COC(=O)c1cccc(NC(=O)CN(c2ccc3c(c2)OCO3)S(C)(=O)=O)c1C` it is inactive: > 76.9 µM.
The figure for `CCN(CC)S(=O)(=O)c1cccc(-c2nnc(SCC(=O)c3ccc(Cl)s3)n2C)c1` is inactive: > 76.9 µM.
